Experimental data published in article PMC4336329 (PLoS ONE, 2015).
About 2,200 (0.71%) of roughly 310,000 compounds showed an effect of 50% or more. The effect is printed as a negative number. Some of the results follow.

target: human ether-à-go-go-related gene (hERG) potassium channel (human, UniProt Q12809); assay: primary screen, population patch clamp on CHO cells stably expressing hERG
Sequence (Q12809 whole entry, looked up): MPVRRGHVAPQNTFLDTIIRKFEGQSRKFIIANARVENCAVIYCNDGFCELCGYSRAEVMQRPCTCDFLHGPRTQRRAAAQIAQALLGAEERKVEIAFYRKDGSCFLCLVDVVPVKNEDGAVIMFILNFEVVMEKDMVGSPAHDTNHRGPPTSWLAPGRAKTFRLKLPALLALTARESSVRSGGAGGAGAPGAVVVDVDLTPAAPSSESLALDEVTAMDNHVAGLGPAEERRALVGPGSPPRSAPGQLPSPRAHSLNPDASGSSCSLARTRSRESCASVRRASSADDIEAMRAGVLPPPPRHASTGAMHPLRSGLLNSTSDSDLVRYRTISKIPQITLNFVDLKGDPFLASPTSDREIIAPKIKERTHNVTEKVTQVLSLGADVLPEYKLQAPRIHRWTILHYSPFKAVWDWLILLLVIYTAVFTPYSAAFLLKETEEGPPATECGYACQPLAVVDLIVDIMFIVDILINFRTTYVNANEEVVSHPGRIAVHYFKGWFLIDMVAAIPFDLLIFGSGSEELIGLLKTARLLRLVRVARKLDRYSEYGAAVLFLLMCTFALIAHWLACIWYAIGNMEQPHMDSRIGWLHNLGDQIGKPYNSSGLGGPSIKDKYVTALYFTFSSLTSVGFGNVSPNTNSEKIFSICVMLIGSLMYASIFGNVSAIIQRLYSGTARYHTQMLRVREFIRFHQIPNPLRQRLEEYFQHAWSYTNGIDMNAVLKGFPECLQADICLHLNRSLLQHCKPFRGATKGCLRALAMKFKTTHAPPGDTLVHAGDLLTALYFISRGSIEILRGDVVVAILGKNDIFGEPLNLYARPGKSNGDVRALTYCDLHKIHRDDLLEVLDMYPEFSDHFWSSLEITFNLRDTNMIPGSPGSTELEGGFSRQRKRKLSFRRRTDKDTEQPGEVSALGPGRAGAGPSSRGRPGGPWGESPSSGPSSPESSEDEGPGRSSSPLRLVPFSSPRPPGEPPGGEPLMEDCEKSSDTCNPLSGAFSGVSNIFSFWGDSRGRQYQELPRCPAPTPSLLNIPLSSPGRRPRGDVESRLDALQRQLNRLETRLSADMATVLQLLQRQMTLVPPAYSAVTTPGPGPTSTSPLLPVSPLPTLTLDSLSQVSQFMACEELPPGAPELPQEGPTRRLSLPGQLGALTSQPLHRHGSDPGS

SMILES	hERG current change (%, negative = inhibition) at 1uM [%]
CCOC(=O)C1(CC/C(C)=N\NC(N)=O)CC(C)(C)OC1=O (stereo not drawn)	15
CCCNC(=O)OCc1cccnc1Sc1ccc(C)cc1	1.55
COc1ccc(NC(=O)c2ccc(-n3nc(C)cc3C)cc2)cc1OC	8.22
O=C(O)CN1C(=O)/C(=C\c2cc(Br)ccc2OCc2ccccc2Cl)SC1=S	15.8
O=S1(=O)CCC(N2CCOCC2)C1 (stereo not drawn)	4.59
COC(=O)Nc1nc(-c2ccccc2)c(C(=O)c2ccc(Cl)cc2)s1	0.489
COc1ccc(-c2csc(N3CCN(S(=O)(=O)c4ccc5c(c4)NC(=O)CO5)CC3)n2)cc1	18.5
COc1ccc(OCC(=O)N2CCN(C(=O)Cc3ccccc3)CC2)cc1	-11.2
CCOc1ccc(CCNC(=O)COC(=O)c2cc(OC)c(OC)c(OC)c2)cc1OCC	4.5
COc1cccc(CNC(=O)CN2C(=O)COc3ccc(S(=O)(=O)N4CCCCC4)cc32)c1	13.5
O=C(CSc1ccc(-c2ccco2)nn1)NC1CCCC1	11.8
COc1ccc(-c2oc3ccccc3c(=O)c2OCC(=O)O)cc1	15.1
O=C(C1CCCO1)N1CCN(C(=S)NC2CC2)CC1 (stereo not drawn)	13.6
Cc1ccc(C(=O)Cn2nnc(-c3cccs3)n2)cc1	11.2
Cc1nnc(SCC(=O)N2CCCC2)n1-c1ccc(F)cc1	4.38
CC(=O)OCC(COC(C)=O)OC(C)=O	21
N#C/C(=N\O)c1nc2ccccc2s1	12.6
CCOC(=O)c1sc(NC(=O)Cc2ccc(C)cc2)nc1C	-13.6
CCCOc1ccc(CSC(CC(=O)O)C(=O)O)cc1 (stereo not drawn)	1.58
CCOc1ccccc1/C=C/c1onc(C)c1S(=O)(=O)N1CCC(C(=O)NC(C)(C)C)CC1	14.6
CCN(CC)CCNCc1ccc(-c2ccc(Cl)cc2)o1.Cl	-45.2
Cc1cc(C=C2C(=O)NC(=S)NC2=O)c(C)n1C1CCCC1	9.53
CC(=O)c1sc2nc(CSc3nncn3C)[nH]c(=O)c2c1C	8.38

SMILES	hERG current change (%, negative = inhibition) at 1uM [%]
O=C(c1ccccn1)N1CCN(c2cccc(C(F)(F)F)c2)CC1	7.88
CCOC(=O)C1CCCN(C(=S)Nc2cccc(Cl)c2C)C1 (stereo not drawn)	14.2
O=C(CC12CC3CC(CC(C3)C1)C2)Nc1ccc2c(c1)COC2=O	-3.99
CCNc1nc(NC(C)(C)C)nc(Oc2ccc(=O)n(-c3ccccc3)n2)n1	0.403
Cc1cc(C)c2sc(N)nc2c1	17
Cc1ccc(/C=N/NC(=O)c2cccs2)s1	7.92
CC1CC(NC(=O)CCn2c(=O)oc3ccccc32)CC(C)(C)C1 (stereo not drawn)	0.453
Cc1cc(C)c2nc(NC(=O)c3ccc4c(=O)n5c(nc4c3)CCCCC5)sc2c1	11.9
Cc1ccc(Nc2c(-c3ccc(N4CCOCC4)cc3)nc3ncccn23)c(C)c1	-0.4
CCC(C)(C)C1CCC2(CC1)NC(CO)(CO)CO2 (stereo not drawn)	9.42
O=C(COC(=O)/C=C/c1ccccc1)NCc1cccs1	-5.63
COc1ccccc1CN1CCN(C(=O)COc2ccc3ccccc3c2)CC1	4.42
CC1Cc2cc(/C(O)=C3/C(=O)C(=O)N(CCCn4ccnc4)C3c3cccnc3)ccc2O1 (stereo not drawn)	-0.337
O=C(Oc1ccc(C(=S)N2CCOCC2)cc1)c1ccccc1[N+](=O)[O-]	21.2
Cc1cc(C(F)(F)F)c(C#N)c(=O)[nH]1	14.8
Cc1cccc(NC(=S)NCCc2ccc3c(c2)OCCO3)c1C	-2.96
CSCCC(=O)Nc1cc(S(=O)(=O)N2CCOCC2)ccc1N1CCN(C)CC1	10.6
Cc1nc2ccc(Br)cn2c(=O)c1Cl	1.19
CCCCCCSc1cc(C)nc2ncnn12	-12.7
O=C(Nc1sc2c(c1C(=O)O)CCC2)c1ccco1	13.6
O=C(c1cccc(Cl)c1)N1CCCC(C(=O)N2CCCCCC2)C1 (stereo not drawn)	-11.9
COc1ccc(C2=NN(C(=O)CSc3nc(=O)n4ccc(C)cc4n3)C(c3ccc(C)cc3)C2)cc1 (stereo not drawn)	15.2
COc1ccc(NS(=O)(=O)c2cccc(C(=O)NCCc3ccc(S(N)(=O)=O)cc3)c2)cc1	12.9

SMILES	hERG current change (%, negative = inhibition) at 1uM [%]
CCN(CC)S(=O)(=O)c1ccc(N2CCOCC2)c(NC(=O)CCC2CCCCC2)c1	8.56
CC[C@@]12C(=O)N(c3cccc(F)c3)C(=O)N1[C@H](c1ccc(Cl)cc1)[C@@H]1C(=O)N(C3CCCCC3)C(=O)[C@@H]12	-1.77
C/C(=N\NS(=O)(=O)c1ccc(C)cc1)c1cccs1	8.33
O=C(OC(C(=O)NCc1ccc2c(c1)OCO2)c1ccncc1)c1ccc(Cl)nc1 (stereo not drawn)	1.17
COc1cc2c(cc1OC)CN(CC(=O)Nc1ccc(S(=O)(=O)N(C)C)cc1)CC2	7.85
CSCCC(=O)N(C)CC1CCCN(CCc2cccc(C(F)(F)F)c2)C1 (stereo not drawn)	-55.1
COc1ccc(C2c3c(oc4ccccc4c3=O)C(=O)N2c2ccccn2)cc1OC (stereo not drawn)	4.42
Cc1cc(C)c2sc(N(CCN(C)C)C(=O)CCS(=O)(=O)c3ccccc3)nc2c1.Cl	13.4
FC(F)(F)c1cnc2c(c1)[nH]c(=S)n2-c1ccc(Cl)cc1	18.8
COc1ccc(-c2noc(CCC(=O)Nc3ccc4c(c3)OCCO4)n2)cc1	6.02
Cc1cc(OC(=O)c2ccc(Cl)cc2Cl)nc(C)n1	8.06
Cc1ccc(C(=O)CC(SCC(=O)O)c2ccc([N+](=O)[O-])cc2)cc1 (stereo not drawn)	8.62
NC(=O)c1c(NC(=O)Cc2cccs2)sc2c1CCC2	8.15
C=CCSc1ccc(S(=O)(=O)N2CCN(C)CC2)cn1	1.06
Cc1cc2[nH]ncc2cc1NC(=S)NC(=O)c1ccccc1	6.37
CC(=O)c1c(O)cc2n(c1=O)-c1ccc(Cl)cc1C2(C)C	2.96
CCOC(=O)/C(=C/C=C/c1ccccc1)NC(=O)c1ccccc1	9.69
S=C(c1c[nH]c2ccccc12)N1CCCC1	11.7
O=C(NC1CCCCC1)C1CCN(S(=O)(=O)N2CCCCCC2)CC1	0.727
CCC(C(=O)NC1CCCCC1)n1c(SCc2cccc(F)c2)nc2ccncc21 (stereo not drawn)	-0.406
CCCc1cc(=O)oc2cc(C)cc(OCC(=O)NCCCn3ccnc3)c12	-66.7
Cc1ccc(OCc2ccc(C(=O)O)o2)c([N+](=O)[O-])c1	10.7
O=C(CCC(=O)N1CCN(c2ccc(F)cc2)CC1)c1ccc(F)cc1	-46.8

SMILES	hERG current change (%, negative = inhibition) at 1uM [%]
CCn1ccnc1CNC(=O)CC1C(=O)NCCN1Cc1ccc(F)cc1Cl (stereo not drawn)	13.5
COc1ccccc1N1CCN(Cc2ccsc2)CC1	-14.8
NC(=O)NC(c1ccccc1)c1ccccc1F (stereo not drawn)	11.9
Br.CCCc1nnc2n1N=C(c1ccc([N+](=O)[O-])cc1)CS2	-7.11
Cc1ccc2c(c1)CCCN2C(=O)CSc1ccccc1	0.275
O=c1c2c([nH]c3ccccc13)CCCCCC2	3.17
COc1ccccc1-c1nnc(NC(=O)C(C)Sc2nncn2C)s1 (stereo not drawn)	8.37
CCOC(=O)N1CCC2(CC1)CC(=O)c1c(ccc3oc(C(=O)O)c(C)c13)O2	9.47
C=CCC1(O)C(=O)Nc2ccccc21 (stereo not drawn)	5.27
COC(=O)CC1Oc2ccccc2N(Cc2ccccc2)C1=O (stereo not drawn)	1.42
Cc1nc(C)c(-c2ccc(SCc3ccc([N+](=O)[O-])cc3)nn2)s1	1.05
CC(C)(C)c1cc(C(=O)CCN2CCOCC2)cc(C(C)(C)C)c1O	1.31
CC(=O)c1ccc(N2CCN(S(=O)(=O)c3ccc4c5c3CC(=O)N5CC(C)S4)CC2)cc1 (stereo not drawn)	17.2
CCOCCn1c(CN2CCN(c3ccc(F)cc3)CC2)nc2c1c(=O)n(C)c(=O)n2C	-34.2
CCOC(=O)c1ccc(N2C(=O)CC(Sc3ncccn3)C2=O)cc1 (stereo not drawn)	11.2
CCOc1ccc2[nH]cc(C(=O)NCCc3ccccc3)c(=O)c2c1	10.4
C/C(=N\Nc1ccccc1[N+](=O)[O-])c1ccc(N2CCOCC2)cc1	13.7
CCc1ccc(N2CC(C(=O)OCC(=O)Nc3ccc(C(C)=O)cc3)CC2=O)cc1 (stereo not drawn)	0.637
O=C1c2cccnc2C(=O)N1c1cccc([N+](=O)[O-])c1	9.85
C/C=C\C=C/C(=O)Nc1cccc(C2=NOC3(C2)C[C@@H](C(N)=O)N(C(=O)c2ccc(Cl)cc2)C3)c1 (stereo partly drawn)	12.2
Cc1ccc(NC(=O)CCCNC(=O)c2ccc(Cl)cc2)cc1S(=O)(=O)N1CCOCC1	-0.53
